Laboratory results as given in the RNAGym collection of RNA variant scans (doi:10.1073/pnas.2313332121).
Variants at the background level are over-represented here.

B1: TPR 5TU (parent)
chain: GGAUCUUCUCGAUCUAACAAAAAAGACAAAUCUGCCACAAAGCUUGAGAGCAUCUUCGGAUGCAGAGGCGGCAGCCUUCGGUGGCGCGAUAGCGCCAACGUUCUCAACUAUGACACGCAAAACGCGUGCUCCGUUGAAUGGAGUUUAUCAUG

Variants of: B1
Experiment: polymerase ribozyme fitness, log enrichment relative to wild type (log ratio); higher = more active; in vitro selection for triplet polymerase activity
Method in brief: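 A heterodimeric triplet polymerase ribozyme had each of its subunits mutagenized by PCR into a library, which was transcribed. One round of in vitro selection, done in triplicate, annealed each library with a biotinylated primer, its partner subunit and triplets, then incubated it frozen at −7 °C before gel excision of extended constructs, streptavidin-bead capture and RT-PCR. Fitness is the logarithm of genotype enrichment relative to wild-type enrichment, based on Illumina sequencing of inputs and outputs and inverse-variance-weighted replicate averages. A base-2 logarithm is used, and genotypes were kept only with ≥10 input reads and ≥1 read per output.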

Variant | polymerase ribozyme fitness (log ratio)
A22C C35G U56C C69G G86A C108U G128U U144C | ≤ -4.2
A23G A29G C131A | ≤ -4.2
A23G C51U G80U C105G | ≤ -4.2
A22U C43A C51A G84A A107U A119U | ≤ -4.2
A22G U33C C87A G92A C103A G128A U144G | ≤ -4.2
A23G A28G A39U A40U U44A U61A U78G C85U U151G | ≤ -4.2
A23U A113U | ≤ -4.2
A22C G84U C99A U127A | ≤ -4.2
A22U A47U C96U U148A | -4.14
A23G C36U G50U G100A A107G C118G | ≤ -4.2
A22C C27G G42A G58U G83C | ≤ -4.2
A23C A29C A39U G50U C75G A91U U104G | ≤ -4.2
A23U C85U | -3.33
A23U A30U C51G G86U G140U U144A U151A | ≤ -4.2
A23U C93U G94U | ≤ -4.2
A24C A40U U55A U104C G126U U139A | ≤ -4.2
A24C C51U C105G | ≤ -4.2
A22U A97G A122G | 0.332
A23G G48C G67A C87G C125G G126U | ≤ -4.2
A23U C85A G128A U135A A137U A138G U146G | ≤ -4.2
A22G C63A C85G A110C | ≤ -4.2
A22G C36U G84C A106G U127G | ≤ -4.2
A22U U56A G84A U139A U145G | ≤ -4.2
A24C C27A A30G U90A G117U A121G | ≤ -4.2

Variant | polymerase ribozyme fitness (log ratio)
A23C C114G | ≤ -4.2
A22U U31G C87G A98G | ≤ -4.2
A23C C27U C57U C72A G83C A120G U151G | ≤ -4.2
A22C G48C G50C C96A A110U G124A | ≤ -4.2
A23G A39U A47C U53G G86C A106G | ≤ -4.2
A22G G88A A91U | ≤ -4.2
A22C C27U A49C C51U C76A C87G C93G A142U | ≤ -4.2
A22G G86C | -1.67
A22G A26U C27U C57G C85A | ≤ -4.2
A23U C87A G133A | ≤ -4.2
A23C C72U U82G | ≤ -4.2
A22G A26G U55A C85A | ≤ -4.2
A22G C54U U56A C76U G94C U145A | -0.624
A23U A24G C35A A106G G140U | ≤ -4.2
A23U C27A A41U C54A C57U C75U C87G C105G A121U U146G | ≤ -4.2
A22C U44A A60C C99G G117A | ≤ -4.2
A23G A49U C51U U53A A60G U61A G71U A73G C85A C87A C105G | ≤ -4.2
A23U G50A C87G G117A U134G | ≤ -4.2
A22G C95U C132G G141C C149U | ≤ -4.2
A22U A37G A52G A64G G124A C129A | ≤ -4.2
A23U G65A C87A U146G | ≤ -4.2
A23G A24C G50U A66C A91U A121U G126A | ≤ -4.2
A23G C87A C96U A98C | ≤ -4.2
A22U C63G U82G C87A | ≤ -4.2

Variant | polymerase ribozyme fitness (log ratio)
A22U C54U G81A G83A U90A C95U G141C | ≤ -4.2
A22G G46C C54G U55G U56G G58C U77G G86C G124C | ≤ -4.2
A23U C27G G42U C54U G74C C96A G124A | ≤ -4.2
A23U C43U U61G G84U A89C C108G U145A | ≤ -4.2
A23G G46C | ≤ -4.2
A22U C93G C96A A121C | ≤ -4.2
A22G C36U C87U | -3.06
A22G A30C A39C G86A G141U | ≤ -4.2
A22U C57A C96G A97U C118G A119C | -2.85
A22C C27G C76U C96G G140U | ≤ -4.2
A23C A24U A40C G124U | ≤ -4.2
A23U G71C C87U U90G G100A | ≤ -4.2
A22G A23U C35A C75A C95G | ≤ -4.2
A23U A28U A40C C54G G58C C75A G84A G126A U130G G136C | ≤ -4.2
A22G C54U C85U C116G | 1.12
A23U C36U C85A C96G A97U | ≤ -4.2
A22U C76U U102G | -3.01
A22U A28C G50C U55A | ≤ -4.2
A22C A115C C129G | ≤ -4.2
A24C C27A G42A C69U G71U U146A | ≤ -4.2
A22U A66U G80C U82A C118U U139A C149A | ≤ -4.2
A23G U45A U55A C57A A60G G67A G83A | ≤ -4.2
A22G A41C G86C U151A | ≤ -4.2
A23C A24C C43G C69G A91C C95A A122G | ≤ -4.2

Variant | polymerase ribozyme fitness (log ratio)
A23U A41U A73U U82C C93U A107C | ≤ -4.2
A22U A28U G58C U61G G84A U134A | ≤ -4.2
A22U A39U C93G | ≤ -4.2
A23U A26U C27U A41U C93U C95A | ≤ -4.2
A23C A47U U61A C95A | ≤ -4.2
A24C C32G C43G C87G U104G A115C | ≤ -4.2
A23G G59U C95U A110G | -3.86
A23C C123A | ≤ -4.2
A23U A39U C72U C93U U130A C132U | ≤ -4.2
A23G U44G A47C C93U A97U C116A G128C U134C U146C | ≤ -4.2
A23C C54A C87A U90G G94C C116A A138G U145A | ≤ -4.2
A23U A66G A91C A106C U139A | ≤ -4.2
A22G G42C A47G G94C C114U A120U | ≤ -4.2
A22U A41G G46C A49C C85A C95U A119U U130A G140U U151C | ≤ -4.2
A24C A60G G62C G86A | ≤ -4.2
A24C C38U C69U G80A C87A G140A G143A | ≤ -4.2
A23G G50C C96G U104G | ≤ -4.2
A22U U31C G81C A89C | 1.01
A22G C43A C95U A122U G143U | ≤ -4.2
A23C U90A | ≤ -4.2
A22U A47U G59U C72G G80A | ≤ -4.2
A22U A37U A41G G86A C108G C116A A142G | ≤ -4.2
A22G A28G A52U G80A C93G U101C A113U G140U | ≤ -4.2
A23U A98U | ≤ -4.2

Variant | polymerase ribozyme fitness (log ratio)
A22U C36U G94U A121G U148A | ≤ -4.2
A23G G50A A60C G74C G136C U148G | ≤ -4.2
A22U C87G | ≤ -4.2
A22U A30G G86U G117C A147U | ≤ -4.2
A23U U90C C93U U102G A119U G124A G133U U134C | ≤ -4.2
A24C C32A C76U G83A G94C A107U A138G G140A | ≤ -4.2
A23C G74C C132G | ≤ -4.2
A22U A30U C32A U78G G88A G117U U139G | ≤ -4.2
A23C G42U A47G C95U C108U C125U | ≤ -4.2
A22C C38A A39C G48U G83A | ≤ -4.2
A22G C43A G59U A60G G81A C85U G143U U144G | ≤ -4.2
A22C U55A G58A G65A G83U C95U C108A C123U G128U | ≤ -4.2
A22U A26G A30C U61G G68A C76A G81A A106G U135G | ≤ -4.2
A23C A30U C54U G81A A91G G126C | ≤ -4.2
A23G U55C G80U C93G C105U C123G G143U | ≤ -4.2
A23U U44A G48U C76G A89G C131A U135G | ≤ -4.2
A23U G62A A64C G65U A89C | ≤ -4.2
A22G A40U U44G A47C C85U C96A A98G A121C | ≤ -4.2
A23C C35U C54U | ≤ -4.2
A24C C72A C103A U109G G126U | ≤ -4.2
A22U A49G C54U C85U | -0.721
A23U G88U C116U G140U G143U U146G | ≤ -4.2
A22G U78A C85U A97C U111C C123A | ≤ -4.2
A22G A28C U33G C93A G94C C95U A121U | ≤ -4.2

Variant | polymerase ribozyme fitness (log ratio)
A22G G25C A26C U55G G86U A106C C108U A122U U148A | ≤ -4.2
A24C A39G A47U U55G G92C | ≤ -4.2
A23C A37G U53A A66G G88U U130A U146A | ≤ -4.2
A22U G70C C129A U135G | ≤ -4.2
A23U A49U U55A A66C G81A G133U | ≤ -4.2
A22G U44A G59A C69A C108G | ≤ -4.2
A24C A37C C72U G92A A119U C125A | ≤ -4.2
A23U U44A U45C C95U C105G A106C C123U A137G | ≤ -4.2
A23C C87G | ≤ -4.2
A22U C76G | ≤ -4.2
A23G U55C G81U C87A A89G A91G A120U | ≤ -4.2
A24C C27G G94A A106G C108U | -3.93
A22U A26U G50C C54A A91C | ≤ -4.2
A22C C38U G58U A60C C85A C87U G133A G140U | ≤ -4.2
A23G G65U A120C G140A U144A | ≤ -4.2
A23U C54G C95U C118U G140U | ≤ -4.2
A24C C43U U55A G59A C93A G117U U135C G136C | ≤ -4.2
A22G C35A U56C C125U U134G U148A | ≤ -4.2
A22U A29G G68A G88U A91U G112C | ≤ -4.2
A24C C54U C87U A150C | ≤ -4.2
A22C G50C U55A C85A C116A U127G | ≤ -4.2
A24C A49C G84A A97C U130G A137U | ≤ -4.2
A23G A37G A39G U44A A64U C75U C95U C108A A142U | ≤ -4.2
A23U C85U A91G G126C G140U | ≤ -4.2

Variant | polymerase ribozyme fitness (log ratio)
A22U G133C | -1.46
A23C C35G A47U G59U A66U U90G A122C | ≤ -4.2
A22C A66C C103G G126C | ≤ -4.2
A23G C75G C76U A115C | ≤ -4.2
A23U G50U U102G | ≤ -4.2
A22U A47U A49G G133C A142U | ≤ -4.2
A22U A41C G42A A60G A98G C125G | ≤ -4.2
A22U A24U G25U U44A C54A C93G C96U C116U G141C | ≤ -4.2
A23U U148C | -4.13
A23C G59C G86U U134A U151C | ≤ -4.2
A23U A60G C75U G86C A107U U144C A147G | ≤ -4.2
A23G G25C G50C C57A G58U C85U U144C | ≤ -4.2
A23C C43A C54U A73U C99G | ≤ -4.2
A22U G88C A89C C108U G141U | ≤ -4.2
A22G A91U A122C U144A | ≤ -4.2
A22U C57G G58A C93G | ≤ -4.2
A22C U44A C85U C103G C125G G140A | ≤ -4.2
A22U C69A A91U | ≤ -4.2
A22U G25A A41C A91G G94C | ≤ -4.2
A22C C85U A119U A120U G140U | ≤ -4.2
A22U A39U A49C C57A G62A A66C U82G U109A G141C | ≤ -4.2
A24C A29C A47U C57A U82A G84A A121U | ≤ -4.2
A22G A37C C76G C85U U146G | ≤ -4.2
